In PubChem BioAssay AID1240 (Sanford-Burnham Center for Chemical Genomics, 2008):
The whole screen tested about 50,000 compounds, of which about 800 (1.6%) showed an effect of 50% or more. This is one part of the list.

Molecular target: Bcl-2-like protein 10 (Homo sapiens) (UniProt Q9HD36)
Assay: Phenotype converters, Bcl-B/TR3 peptide binding displacement, primary biochemical FP (AID 1240);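 further: 0% = Bcl-B with tracer peptide and DMSO and 100% = tracer peptide lacking Bcl-B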
Settings: GST-Bcl-B / FITC-TR3 peptide fluorescence polarization; stronger effect = higher value; compound at 3.75 mg/L

UniProt Q9HD36, sequence (Q9HD36 whole entry, looked up): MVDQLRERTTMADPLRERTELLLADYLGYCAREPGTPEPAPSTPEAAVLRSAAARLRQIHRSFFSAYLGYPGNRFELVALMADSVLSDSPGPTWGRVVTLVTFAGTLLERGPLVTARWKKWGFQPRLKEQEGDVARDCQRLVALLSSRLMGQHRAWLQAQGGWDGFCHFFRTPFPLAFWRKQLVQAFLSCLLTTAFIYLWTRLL

Q: For CCOC(=O)C(=C/C(C)=C/c1ccco1)C(=O)OCC, which displacement is on record?
A: 8.3%

Q: For O=C1CC(c2ccccc2)CC2=C1C(c1ccc(OC(F)(F)F)cc1)Nc1ccccc1N2 (stereo not drawn), which displacement is on record?
A: 8.8%

Q: How did the displacement turn out when C=CCn1c(SCC(=O)NCCCO)nc2sc(C)c(C)c2c1=O was run?
A: 0%

Q: How did the displacement turn out when O=C1OC(c2ccccc2)=C/C1=C/c1ccc(-c2ccc([N+](=O)[O-])cc2Br)o1 was run?
A: -18.7%

Q: How did the displacement turn out when Nc1nnc(COc2ccc(Br)cc2)s1 was run?
A: 6%

Q: COc1ccc(NS(=O)(=O)c2cccc([N+](=O)[O-])c2)cc1Cl was tested. Which displacement did it give?
A: -3.9%

Q: With CCN(CC)C(=O)Sc1nc2ccccc2s1 as the compound, how does the displacement read?
A: -4.8%

Q: With O=[N+]([O-])c1ccc(N2CCN(CCO)CC2)cc1NCCc1ccccc1 as the compound, how does the displacement read?
A: 5.4%

Q: How did the displacement turn out when CN(C)c1ccc(/C=C/c2nc3ccccc3c(=O)n2-c2cccc3ccccc23)cc1 was run?
A: 105%

Q: How did the displacement turn out when C/C(=N\N=C1\NC(=O)C(CC(=O)Nc2ccc(Cl)cc2Cl)S1)c1ccc([N+](=O)[O-])cc1 (stereo not drawn) was run?
A: -0.3%

Q: With O=C(CN1C(=O)/C(=C\c2ccccc2F)SC1=S)Nc1ccccc1C(=O)O as the compound, how does the displacement read?
A: 6.3%

Q: O=C(O)CCCN1C(=O)C(=O)/C(=C(/O)c2ccccc2)C1c1ccc([N+](=O)[O-])cc1 (stereo not drawn) was tested. Which displacement did it give?
A: -18.2%

Q: Cc1c(NC(=O)c2ccccc2Br)cccc1-c1nc2ccccc2o1 was tested. Which displacement did it give?
A: 3.4%

Q: Which displacement does the source give for Brc1ccc(/C=N/c2ncn[nH]2)cc1 here?
A: -13.9%

Q: Which displacement does the source give for Cc1cc(C)n(-c2cc(Nc3ccccc3)nc(-c3ccccc3)n2)n1 here?
A: 2.1%

Q: How did the displacement turn out when CC1CN(CC(O)COc2ccc3ccccc3c2)CC(C)O1 (stereo not drawn) was run?
A: 0.2%

Q: How did the displacement turn out when COc1cc(NC(=O)Cn2nc(C)c([N+](=O)[O-])c2C)c(OC)cc1Cl was run?
A: -8.5%

Q: For CCOc1ccc(Cc2c(O)nc(N)[nH]c2=O)cc1, which displacement is on record?
A: 10.2%

Q: Cc1ccc(NC(=O)c2ccc(-c3cc(Cl)ccc3Cl)o2)c([N+](=O)[O-])c1 was tested. Which displacement did it give?
A: 2.1%

Q: Which displacement does the source give for Cc1c(Cl)cccc1NC(=O)C(=O)NCC1CCCO1 (stereo not drawn) here?
A: 10.9%

Q: Which displacement does the source give for CCc1ccccc1NC(=O)c1c(NC(=O)c2ccco2)sc2c1CCC2 here?
A: 12.1%

Q: With CCn1c(-c2ccc(OC)cc2)n[nH]c1=S as the compound, how does the displacement read?
A: -1.8%

Q: With Cn1cnnc1SCC(=O)c1ccccc1 as the compound, how does the displacement read?
A: 15.5%

Q: Which displacement does the source give for CCc1ccccc1NC(=O)CN(c1cccc(C(F)(F)F)c1)S(C)(=O)=O here?
A: 1.7%

Q: How did the displacement turn out when COc1ccc(C(=O)Nc2ccc(N3CCCCC3)c(Cl)c2)cc1OC was run?
A: -55.4%

Q: Cc1ccc(-c2noc(-c3ccc(C)cc3)n2)cc1 was tested. Which displacement did it give?
A: 9.1%

Q: For O=C(NCc1ccccc1)/C(NC(=O)c1ccccc1)=C1\c2ccccc2-c2ccc([N+](=O)[O-])cc21, which displacement is on record?
A: 1.7%

Q: For O=C(Nc1ccccc1)Nc1ccc(S(=O)(=O)N2CCCC2)cc1, which displacement is on record?
A: 1.5%

Q: For COc1ccc(C2Nc3ccccc3C(=O)N2Cc2ccco2)cc1COc1ccc([N+](=O)[O-])cc1 (stereo not drawn), which displacement is on record?
A: 13.9%

Q: With O=C(Nc1ccc2c(c1)oc1ccccc12)c1c(Cl)cccc1Cl as the compound, how does the displacement read?
A: 1.4%

Q: Which displacement does the source give for CN(C)c1ccc(/C=N/S(=O)(=O)CCc2ccccc2)cc1 here?
A: -10%

Q: Which displacement does the source give for CCCC(C)NC(=O)c1ccc(Cl)c([N+](=O)[O-])c1 (stereo not drawn) here?
A: -0.1%

Q: With COc1ccc(/C=N/n2cn[nH]c2=S)cc1OC as the compound, how does the displacement read?
A: -5.1%

Q: With Cc1c(-c2ccccc2)nc2ccccc2c1C(=O)Nc1ccc(F)cc1F as the compound, how does the displacement read?
A: 4.1%

Q: How did the displacement turn out when Cc1ccc(C2=NNC(c3ccc(F)cc3)S2)cc1 (stereo not drawn) was run?
A: -5.6%

Q: For CCOc1ccc(-c2cc(C(=O)Nc3ncn[nH]3)c3ccccc3n2)cc1, which displacement is on record?
A: -1.4%

Q: Which displacement does the source give for CC1C(c2ccc(N(C)C)cc2)NC(c2ccc(N(C)C)cc2)C(C)C1O (stereo not drawn) here?
A: 11.5%

Q: With O=C(Nc1cccc(-c2nc3ccccc3s2)c1)c1ccc(Cl)cc1Cl as the compound, how does the displacement read?
A: 2%

Q: For O=C1C=C(C(c2ccccc2)c2ccccc2)C(=O)c2ccccc21, which displacement is on record?
A: 11.7%

Q: With COc1ccc(C(=O)NC2CCC(CC3CCC(NC(=O)c4ccc(OC)c(OC)c4)CC3)CC2)cc1OC (stereo not drawn) as the compound, how does the displacement read?
A: 8.9%

Q: For Cc1cc(C)nc(Nc2nc3ccccc3[nH]2)n1, which displacement is on record?
A: 13.9%

Q: For COc1cc(/C=C2\C(=O)NC(=O)N(c3ccc(Cl)cc3)C2=O)c(Br)cc1O, which displacement is on record?
A: 2.7%

Q: Which displacement does the source give for CC(C)C12CN3CC(C(C)C)(CN(C1)C3c1ccc(O)cc1O)C2=O (stereo not drawn) here?
A: 7.8%

Q: For Cc1ccc(S(=O)(=O)N2CCN(Cc3cccn3C)CC2)cc1, which displacement is on record?
A: -1.2%

Q: How did the displacement turn out when COc1cccc(C2NC(=O)NC(C)=C2C(=O)OCCc2ccccc2)c1OC (stereo not drawn) was run?
A: 0.6%

Q: CCCCOc1ccc(C(=O)Nc2sc(C)c(CC)c2C(N)=O)cc1 was tested. Which displacement did it give?
A: 9%

Q: For CCOc1cc(/C=C2/SC(=S)N(CC)C2=O)ccc1OCc1ccc(Cl)cc1, which displacement is on record?
A: 24.7%

Q: How did the displacement turn out when Cc1ccc(N(CC(=O)N2CCOCC2)S(=O)(=O)c2ccc(F)cc2)cc1 was run?
A: 7%

Q: Which displacement does the source give for CC(=O)Oc1ccc2c3c(c(=O)oc2c1OC(C)=O)CCCC3 here?
A: 4.4%

Q: How did the displacement turn out when Cc1cccc(N2C(=O)c3ccc(-c4nc5ccccc5c(=O)o4)cc3C2=O)c1C was run?
A: 6.9%

Q: With Cc1cc(S(=O)(=O)c2ccc(Cl)cc2)c(C)c(S(=O)(=O)N2CCOCC2)c1 as the compound, how does the displacement read?
A: -5.1%

Q: How did the displacement turn out when CC(C)c1c(O)nc(SCCN(C)C)[nH]c1=O was run?
A: -52.5%

Q: For O=S(=O)(/C=C/c1ccccc1)N1CCN(C/C=C/c2ccccc2)CC1, which displacement is on record?
A: -16.6%
